In all, about 110,000 compounds went through this assay and about 230 (0.21%) showed an effect of 50% or more. Some of the results follow.
These compounds were tested against DPAP1 (Plasmodium falciparum, UniProt Q8IIJ9) (assay: primary screen, percent inhibition; read by cleavage of a fluorogenic dipeptide substrate; higher = more effect of the substance).
Design: species or system P. falciparum D10 trophozoite lysates; single well
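Further: 30 min substrate incubation versus DMSO and 10 µM JCP410 controls.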

Sequence of DPAP1 (Q8IIJ9 whole entry, looked up): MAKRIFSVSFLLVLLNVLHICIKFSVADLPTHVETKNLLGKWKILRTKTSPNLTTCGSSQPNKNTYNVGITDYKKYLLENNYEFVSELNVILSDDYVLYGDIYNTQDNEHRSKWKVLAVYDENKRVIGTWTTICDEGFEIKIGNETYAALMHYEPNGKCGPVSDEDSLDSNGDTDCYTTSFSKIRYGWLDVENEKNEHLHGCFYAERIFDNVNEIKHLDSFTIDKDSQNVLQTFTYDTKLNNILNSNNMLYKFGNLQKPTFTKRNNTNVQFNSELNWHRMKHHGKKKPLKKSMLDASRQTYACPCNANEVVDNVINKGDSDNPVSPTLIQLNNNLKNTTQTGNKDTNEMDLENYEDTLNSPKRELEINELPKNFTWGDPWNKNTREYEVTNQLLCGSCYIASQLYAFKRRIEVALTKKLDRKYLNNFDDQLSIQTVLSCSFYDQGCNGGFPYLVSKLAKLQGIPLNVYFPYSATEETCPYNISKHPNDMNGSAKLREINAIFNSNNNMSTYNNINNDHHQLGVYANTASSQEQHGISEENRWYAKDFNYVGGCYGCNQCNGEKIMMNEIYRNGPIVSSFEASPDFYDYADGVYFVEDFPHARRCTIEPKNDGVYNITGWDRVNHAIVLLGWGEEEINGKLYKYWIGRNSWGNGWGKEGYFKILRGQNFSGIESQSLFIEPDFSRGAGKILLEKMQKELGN

In order of falling “% Inhibition @ 10 uM” value:
1. Cc1ccc(-c2cn3c(n2)sc2cc(C(=O)N4CCN(C(=O)c5ccco5)CC4)ccc23)cc1  21.9%
2. COC(=O)c1c(NC(=O)NCc2ccccc2)sc2c1CCCC2  13.4%
3. CCOCCCNC(=O)c1oc2c(c1C)-c1nn(Cc3ccccc3Cl)cc1CC2  9.79%
4. Nc1c(C(=O)Nc2cccc(C(=O)O)c2)sc2nc3c(cc12)CCCCC3  9%
5. CCOC(=O)C1=C(C)N=c2s/c(=C\c3ccccc3OCC)c(=O)n2C1c1ccc(F)cc1 (stereo not shown)  8.36%
6. Cc1ccc(Cn2ccc(NC(=O)C3=CC(c4cccs4)=NS(=O)(=O)N3C)n2)cc1  6.98%
7. COC(=O)c1cccc(N2CCCC2=O)c1  6.56%
8. CC1CCN(S(=O)(=O)c2ccc(Br)c(C(=O)O)c2)CC1  5.56%
9. COc1cc(NC(=O)COc2cc(C)ccc2C(C)C)ccc1NC(=O)c1ccco1  5.53%
10. CCN1CCN(C(=O)CCn2nc(-c3ccc(Cl)cc3)ccc2=O)CC1  4.81%
11. CSc1ccc(C2C(C#N)=C(N)Oc3c2c(=O)oc2ccccc32)cc1 (stereo not shown)  4.66%
12. Cc1cccc2sc(NC(=O)C3CCC(C/N=c4/c(N5CCOCC5)c(O)c4=O)CC3)nc12 (stereo not shown)  4.4%
13. CCOC(=O)c1cc2c(=O)n3ccccc3nc2n(C(C)C)/c1=N\C(=O)COc1ccccc1  4.37%
14. CC(=O)C1=C(C)OC(N)=C(C#N)C1c1ccsc1 (stereo not shown)  4.3%
15. Cc1ccc(NS(=O)(=O)c2ccc(NC(=O)C(F)(F)F)cc2)c(C)c1  4.11%
16. COc1ccc2nc(NC3=NC(=O)CC(c4ccccc4)N3)nc(C)c2c1 (stereo not shown)  3.95%
17. COc1ccc(NC2=NC(=O)/C(=C/c3ccc(N4CCOCC4)cc3C)S2)cc1  3.61%
18. O=C(NCc1cccnc1)c1cc(-c2ccccc2Cl)on1  3.54%
19. CC1CN(c2nc3c(=O)n(C)c(=O)n(C)c3[nH]2)CC(C)O1 (stereo not shown)  3.51%
20. Cc1nn(CCCC(=O)NC(C)c2ccccc2)c(=O)c2cc3sccc3n12 (stereo not shown)  3.4%
21. Cn1c(=O)c2c(nc(SCC(=O)NC3CCCCC3)n2Cc2ccccc2F)n(C)c1=O  3.38%
22. Cc1cc(/C=C2\NC(=O)NC2=O)c(C)n1-c1ccc(OCc2ccccc2F)cc1  3.37%
23. CCOC(=O)c1c(C)c(-c2ccccc2)n(CC(=O)N2CCc3ccccc3C2)c1C  3.32%
24. O=C1OC(c2ccco2)=N/C1=C\c1cccc(C(F)(F)F)c1  3.31%
25. Cn1cc(C(=O)NCCN2CCN(Cc3ccccc3)CC2)c2c3ccccc3n(C)c2c1=O  3.27%
26. CN1CCC(N(C)Cc2ccsc2)CC1  3.1%
27. COc1cccc(CN2CCN(Cc3cc(OC)c4c(c3)OCO4)CC2)c1  2.97%
28. Cc1cc(OCC(=O)Nc2ccc(S(=O)(=O)Nc3ncccn3)cc2)ccc1C(C)C  2.95%
29. CC(=O)Nc1ccc(CN(CCN(C)C)Cc2ccccc2)cc1  2.7%
30. CCOC(=O)C1=C(CNCCOc2ccc(OC)cc2)NC(=O)NC1c1ccc2c(c1)OCO2 (stereo not shown)  2.57%
31. O=C1/C(=C/c2cc(Br)cc([N+](=O)[O-])c2O)Sc2ccccc21  2.54%
32. Cc1cccc(NC(c2ccccn2)c2ccc3ccc(C)nc3c2O)n1 (stereo not shown)  2.43%
33. CCCCOc1ccc(-c2nc(/C=N/c3cc(C)on3)c(O)o2)cc1  2.11%
34. CCOC(=O)N1CCN(C(=O)CSc2ccccc2)CC1  2.09%
35. Clc1cccc(/C=C/c2nn3c(-c4ccncc4)nnc3s2)c1  2.05%
36. COc1cc(C(=O)Nc2ccc(N3CCN(C(=O)C(C)C)CC3)c(Cl)c2)cc(OC)c1OC  2.02%
37. Cc1cccc(NC(=O)C2c3ccccc3C(=O)N(CC(C)C)C2c2cccs2)n1 (stereo not shown)  1.97%
38. COc1ccc(-c2nc3c(c(SC(F)F)n2)Cc2c(CO)cnc(C)c2O3)cc1  1.95%
39. CCOc1ccc(S(=O)(=O)NCCC2=CCCCC2)c2cccnc12  1.91%
40. C=CCn1c(CC)nc2c(cnn2-c2ccccc2)c1=O  1.88%
41. CCOc1ccc2nc(N3CCC(C(=O)N4CCN(C5CCCCC5)CC4)CC3)sc2c1  1.8%
42. CCOC(=O)c1[nH]c(C)c(C(=O)N2CCN(Cc3ccccc3)CC2)c1C  1.72%
43. Cc1ccc(CN2C(=O)CCC2C(=O)NC2CC2)cc1 (stereo not shown)  1.62%
44. O=[N+]([O-])c1cc(CN2CCC(O)CC2)ccc1Cl  1.55%
45. Cc1cc(C)c2c(C)nn(C(C)C)c2n1  0.968%
46. Cc1ccc(-c2n[nH]c3c2C(c2ccc(N(C)C)cc2)C(C#N)=C(N)O3)cc1 (stereo not shown)  0.777%
47. CCCCc1ccc(N2CC(C(=O)Nc3ccccc3Cl)CC2=O)cc1 (stereo not shown)  0.777%
48. CCn1cc(C(=O)NCCCOC)c2cc(OC)c(OC)cc2c1=O  0.505%
49. Cc1cccc(NC(=O)C2CCN(S(=O)(=O)c3c(C)noc3/C=C/c3cccs3)CC2)n1  0.458%
50. CCC(Sc1nc2cccnc2[nH]1)C(=O)NC1CCCC1 (stereo not shown)  0.434%
51. O=C(CCC1CCCC1)N1CCC(c2nc(-c3ccc(S(=O)(=O)N4CCCC4)cc3)no2)CC1  0.401%
52. CCC(C)NC(=O)C1CCN(S(=O)(=O)c2ccc(C)cc2)CC1 (stereo not shown)  0.387%
53. CCc1nn(-c2ccccc2)c2c1C(c1ccccc1)C(C#N)=C(N)O2 (stereo not shown)  0.121%
54. CCc1ccc(C2C(C(=O)OC)=CNC=C2C(=O)OC)cc1  -0.357%
55. COc1ccccc1/C=C(\C#N)c1nc(-c2ccc(Cl)cc2)cs1  -0.693%
56. CCC(C)NC(=O)Cc1c(C)nc2c(-c3ccc(F)cc3)c(C)nn2c1C (stereo not shown)  -0.72%
57. CCc1nnc(NC(=O)CSc2nc3c(c(=O)n(C)c(=O)n3C)n2Cc2ccccc2F)s1  -0.92%
58. FC(F)(F)c1cccc(CN2CCN(C/C=C/c3ccccc3)CC2)c1  -0.969%
59. CCCNC(=O)NC1CCN(c2nc3ccccc3s2)CC1  -1.11%
60. COc1ccc(Br)cc1/C=C1/OC(c2ccccc2F)=NC1=O  -1.33%
61. c1ccc2c(N3CCC4(CC3)OCCO4)nnc(Cc3ccncc3)c2c1  -1.43%
62. CCC(Oc1ccccc1)C(=O)Nc1nc(C)c(C(=O)N(C)C)s1 (stereo not shown)  -1.52%
63. COc1ccc(/C=C2\C(=N)N3N=C(S(=O)(=O)CC(C)C)SC3=NC2=O)cc1  -1.54%
64. Cc1cc(NS(=O)(=O)c2ccc(NC(=O)COc3ccc(Br)cc3)cc2)no1  -1.61%
65. CN1CCC(NCCN2CCOCC2)CC1  -1.81%
66. Cc1cc(C(F)(F)F)n2nc(C)c(C#N)c2n1  -1.92%
67. O=C(NCCO)c1nnc(-c2ccc3c(c2)OCO3)o1  -1.97%
68. Cc1cc2ccccc2n1CCNC(=O)c1ccc(S(=O)(=O)N(C)C)cc1  -2.87%
69. CCOC(=O)C1=C(C)N=c2s/c(=C/c3ccc(Cl)cc3)c(=O)n2C1c1ccccc1 (stereo not shown)  -2.91%
70. CCN(CC)c1ccc(NC(=O)CCc2ccccc2)cc1  -2.98%
71. Cc1ccc(-n2nc(C)c3c(C(=O)NCC4CCN(CCc5cccs5)CC4)cc(C)nc32)cc1  -3.1%
72. O=C(CCCNS(=O)(=O)c1cccc2nsnc12)NCc1ccc(Cl)cc1  -3.23%
73. Cc1noc(C)c1S(=O)(=O)N1CCC2(CC1)OCCO2  -3.57%
74. O=C(Nc1cc(Cl)ccc1Cl)c1ccc(F)cc1  -3.82%
75. CCOc1ccc(N(CC(=O)Nc2ccc(Br)c(C)c2)S(C)(=O)=O)cc1  -3.87%
76. O=CN1N=C(c2ccccc2)CC1c1ccccc1 (stereo not shown)  -4.08%
77. COc1cc(OC)cc(-c2nc3nc(C)c(CCC(=O)NCCCOC(C)C)c(C)n3n2)c1  -4.1%
78. O=c1c2nnn(Cc3ccc(F)cc3)c2ncn1Cc1ccc(F)cc1  -4.17%
79. CCC1CCCCN1S(=O)(=O)c1ccc(NC(=O)COc2ccc(OC)cc2)cc1 (stereo not shown)  -4.52%
80. CCN(CC)CCNC(=O)CCCc1nnc2n3nc(-c4ccccc4)nc3c3ccccc3n12  -4.69%
81. CCNC(=O)/C(=C\c1ccc2c(c1)OCO2)NC(=O)c1ccccc1OC  -4.76%
82. Cc1ccc(-c2onc(C)c2C)cc1S(=O)(=O)NCc1ccccn1  -5.09%
83. CCOc1ccc(CCNc2nc3ccccc3n3nnnc23)cc1OCC  -5.37%
84. CCc1ccc2c(c1)Sc1ccccc1CC2N1CCN(CCO)CC1 (stereo not shown)  -6.02%
85. Cc1cccc(C)c1C(=O)c1ccc(O)cc1O  -6.41%
86. CC(C)c1cc(C(=O)NCCc2ccccc2)no1  -6.45%
87. NCC1CCN(S(=O)(=O)c2ccc(-n3cnnn3)cc2)CC1  -6.56%
88. CCOc1ccc(C(C)NC(=O)c2cnn3c(C(F)F)cc(-c4ccc(OC)cc4)nc23)cc1 (stereo not shown)  -6.79%
89. N#Cc1nc(-c2ccccc2)oc1NCCN1CCCCC1  -6.86%
90. Cc1cc(C)cc(Oc2c(C(F)(F)F)oc3c(CN4CCOCC4)c(O)ccc3c2=O)c1  -6.94%
91. O=C(c1cc(-c2cccnc2)on1)N1CCN(Cc2ccccc2)CC1  -7.15%
92. Cc1oc(-c2ccc(C(=O)NCc3ccc(Cl)cc3)cc2)nc1CS(=O)c1ccccc1 (stereo not shown)  -7.28%
93. CC(CC(=O)O)CC(=O)Nc1ccccn1 (stereo not shown)  -7.33%
94. CCOc1cc(C(=O)Nc2ccc3c(c2)C(=O)N(C)C3=O)cc(OCC)c1OCC  -7.5%
95. Cn1c(=O)c2cn(-c3cccc4ccccc34)cc2n(C)c1=O  -7.8%
96. O=C(NC1CCCc2ccccc21)C1CCC(CNS(=O)(=O)c2cccs2)CC1 (stereo not shown)  -7.98%
97. O=C(CSc1nnc(-c2ccccc2)n1Cc1ccccc1)NCc1ccco1  -8.85%
